Results as given in publication PMC6919601, “Identification of Plasmodium dipeptidyl aminopeptidase allosteric inhibitors by high throughput screening” (PLoS ONE, 2019).
Hit rate of the full screen: of about 110,000 compounds, about 230 (0.21%) showed an effect of 50% or more. Some of the results follow.

Molecular target: DPAP1 (Plasmodium falciparum, UniProt Q8IIJ9)
Assay: primary screen, percent inhibition; read by cleavage of a fluorogenic dipeptide substrate; higher = more effect of the substance
Parameters: species or system P. falciparum D10 trophozoite lysates; single well
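Also: 30 min substrate incubation versus DMSO and 10 µM JCP410 controls.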

Sequence of DPAP1 (Q8IIJ9 whole entry, looked up): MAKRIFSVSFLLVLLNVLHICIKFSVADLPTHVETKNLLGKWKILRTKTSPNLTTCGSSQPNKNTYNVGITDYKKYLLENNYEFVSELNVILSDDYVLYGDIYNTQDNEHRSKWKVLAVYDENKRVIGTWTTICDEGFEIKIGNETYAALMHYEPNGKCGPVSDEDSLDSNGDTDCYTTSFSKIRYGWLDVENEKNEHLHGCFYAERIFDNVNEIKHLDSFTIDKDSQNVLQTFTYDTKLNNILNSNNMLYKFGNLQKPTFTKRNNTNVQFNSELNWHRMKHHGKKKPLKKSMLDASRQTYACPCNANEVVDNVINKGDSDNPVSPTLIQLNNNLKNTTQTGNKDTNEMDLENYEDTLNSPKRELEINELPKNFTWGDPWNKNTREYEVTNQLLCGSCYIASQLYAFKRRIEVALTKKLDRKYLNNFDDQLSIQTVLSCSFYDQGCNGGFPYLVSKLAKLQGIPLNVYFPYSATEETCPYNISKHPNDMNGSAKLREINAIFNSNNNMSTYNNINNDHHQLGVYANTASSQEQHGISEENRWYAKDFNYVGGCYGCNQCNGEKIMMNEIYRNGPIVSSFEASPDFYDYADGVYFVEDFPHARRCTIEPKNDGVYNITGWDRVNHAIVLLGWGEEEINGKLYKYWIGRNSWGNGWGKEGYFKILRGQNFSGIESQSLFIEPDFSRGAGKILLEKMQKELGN

Compound | % Inhibition @ 10 uM
c1ccc2c(c1)nc(NCCc1c[nH]c3ccccc13)c1nnnn12 | -6.22%
COc1ccc(-n2c(C)ccc2-c2ccccc2)cn1 | -4.93%
COc1ccc(C(=O)N2CCN(Cc3cc(OC)c(OC)cc3OC)CC2)cc1 | -4.84%
CN1C(=O)NC(=O)/C(=C/c2cn(C)c3ccccc23)C1=O | 7.67%
CC(C)Cc1cc(C(=O)N2CCN(C(c3ccccc3)c3ccccc3)CC2)no1 | -11.5%
CC(C)CCC1CC1C(=O)Nc1ccc(Cl)cc1 (stereo not drawn) | -1.42%
CC(C(=O)NCCc1ccccc1F)N1C(=O)c2ccccc2C1=O (stereo not drawn) | 2.18%
N#CCc1ccc(NC(=O)C(c2ccccc2)c2ccccc2)cc1 | -3.34%
CC(C)c1ccc(N2CCN(c3ccc(NC(=O)CCC(=O)O)cc3)CC2)cc1 | 2.49%
O=C(CCCn1c(SCC(=O)c2ccccc2)nc2ccsc2c1=O)NCCc1ccccc1 | 3.54%
Cc1ccc(C(=O)/C(=C/c2ccc(F)cc2)n2cncn2)cc1 | 3.27%
COc1ccc(CCNC(=O)CN(C)S(=O)(=O)c2ccc3nc(O)ccc3c2)cc1OC | -5.85%
Cc1c(C(c2ccccc2Cl)c2c(C)n(C)n(-c3ccccc3)c2=O)c(=O)n(-c2ccccc2)n1C | -4.87%
CCCN1CCC(N2CC=C(c3ccc(F)cc3)CC2)CC1 | -1.21%
CCc1ccc(-c2cc3c(=O)n(CC(=O)NCc4cccnc4)nc(C)n3n2)cc1 | 2.27%
N#Cc1nc(/C=C/c2ccc(F)cc2)oc1NCCc1ccccc1 | -0.808%
COc1cc(-c2[nH]nc3c2C(c2ccc(C(F)(F)F)cc2)C(C#N)=C(N)O3)cc(OC)c1OC (stereo not drawn) | 8.6%
N#CC1=C(N)Oc2[nH]nc(-c3ccccc3)c2C1c1cc2c(cc1Cl)OCO2 (stereo not drawn) | -6.34%
COc1cccc2c(O)c(C/C=C(/C)Cl)c(C)nc12 | 5.2%
Cc1cc(N)c(O)c(-n2nc3ccccc3n2)c1 | -6.75%
O=C(O)CCC(=O)Nc1ccc(Br)cc1 | -0.0372%
N#Cc1c(NC(=S)NC(=O)C23CC4CC(CC(C4)C2)C3)sc2c1CCC2 | -1.69%
CCOc1ccc(C2c3c(-c4cc(C)ccc4O)n[nH]c3C(=O)N2CCO)cc1OCC (stereo not drawn) | 5.35%
Cn1cccc1Cc1nnc(SCC(=O)NCCc2ccccc2)n1C | -2.14%
CC(C)NC(=O)c1ccc(C2SCC(=O)N2CCc2ccccc2)cc1 (stereo not drawn) | -5.21%
Cn1c(C(=O)NCc2ccccn2)cc2oc3ccccc3c21 | -0.281%

Compound | % Inhibition @ 10 uM
COc1ccc(CC(=O)Nc2cccc(NC(C)=O)c2)cc1 | 4.06%
O=C(c1ccc(Br)o1)N1CCN(c2ccc(Cl)cc2)CC1 | -2.2%
CC(/C=C(\O)c1cccnc1)=N\c1cc(C)ccc1Cl | -4.75%
O=P(O)(COc1ccccc1O)c1ccccc1 | -4.23%
NC(Cc1c[nH]c2ccc(OCc3ccccc3)cc12)C(=O)O (stereo not drawn) | -3.65%
COc1cccc(N(CC(=O)Nc2ccc(CC#N)cc2)S(=O)(=O)c2ccc(C)cc2)c1 | -18.8%
COc1ccccc1-n1nnc(S(=O)(=O)c2ccc(C)cc2)c1C | -3.85%
CCCC(=O)Nc1ccc(N(CC)CC)cc1 | -3.04%
Clc1ccc(-c2cn3c4ccccc4nc3n2CCN2CCCC2)cc1 | -5.16%
Cc1ccc(Cn2c(=N)n(CC(=O)O)c3ccccc32)cc1 | 1.34%
CC(NC(=O)OCCOc1ccccc1)(C(F)(F)F)C(F)(F)F | -1.33%
C=CCNS(=O)(=O)c1sccc1/C=N/O | -1.42%
CCSc1nc(O)c(C(C)CC)c(O)n1 (stereo not drawn) | -0.351%
Cn1ccc(C(=O)Nc2sc3c(c2C(N)=O)CCCCC3)n1 | 47%
Cc1cc(/C=C2\NC(=O)N(Cc3ccc(Cl)cc3)C2=O)c(C)n1-c1cccnc1 | 2.17%
CC1C2CC(C(S(=O)(=O)NC(C)(C)C)/C2=N/O)C1(C)C (stereo not drawn) | 0.937%
Cc1nn(C)c(C)c1Sc1ccc(Br)cc1 | -3.14%
CN1CCN(CCOC2c3ccccc3CSc3ccc(Cl)cc32)CC1 (stereo not drawn) | 6.08%
O=C(Nc1ccc(-c2cn3cccnc3n2)cc1)c1ccccc1Br | 5.07%
CC/N=C1\S/C(=C\c2cc(Br)ccc2O)C(=O)N1CC | 24.1%
COc1cc(-c2nc3ccc4ccccc4c3c3c2CCC3)cc(OC)c1OC | -7.11%
O=C(O)CCCNC(=O)c1ccco1 | 4.74%
COc1ccc(NC(=O)CN(c2ccccc2F)S(C)(=O)=O)cc1OC | -3.13%
COc1ccccc1C(=O)Nc1ccc2c(c1)C(=O)N(C1CCCCC1)C2=O | -2.32%
CCOc1ccc(/C=c2\sc3nc(=O)c(-c4ccccc4)nn3c2=O)cc1OCC | -9.16%
